# From the supplement of paper PMC8728848
# This is one part of the list.
# Key:
# Assay in all cases: glycan array binding signal (z-score within array); higher = stronger binding
# Settings in all cases: glycan notation: IUPAC condensed, linker removed
# [1] = target: GlcNAc(b1-6)Gal(b1-4)GlcNAc
# Outline: (§1)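 Glycan array binding is given as a within-array Z-score, which can be read as non-binding when negative. The arrays, 3228 of them, came from the Consortium for Functional Glycomics database and were retained only where the protein sequence was available. Z-scores were averaged across arrays of the same protein sequence at different concentrations or buffers and across linkers.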
# GlcNAc(b1-6)GalNAc = target: GlcNAc(b1-6)GalNAc
# Outline: as §1
# GlcNAc3Prop(b1-4)GlcNAc = target: GlcNAc3Prop(b1-4)GlcNAc
# Outline: as §1
# [2] = target: GlcNAc6S(b1-3)Gal(b1-4)GlcNAc
# Outline: as §1
# Kdn(a2-3)Gal(b1-3)GalNAc = target: Kdn(a2-3)Gal(b1-3)GalNAc
# Outline: as §1
# Kdn(a2-3)Gal(b1-3)GlcNAc = target: Kdn(a2-3)Gal(b1-3)GlcNAc
# Outline: as §1
# Kdn(a2-3)Gal(b1-4)Glc = target: Kdn(a2-3)Gal(b1-4)Glc
# Outline: as §1
# Kdn(a2-3)Gal(b1-4)GlcNAc = target: Kdn(a2-3)Gal(b1-4)GlcNAc
# Outline: as §1
# [3] = target: Kdn(a2-3)Gal(b1-4)[Fuc(a1-3)]GlcNAc
# Outline: as §1
# Kdn(a2-6)Gal(b1-4)GlcNAc = target: Kdn(a2-6)Gal(b1-4)GlcNAc
# Outline: as §1
# [4] = target: Man(a1-2)Man(a1-2)Man(a1-3)Man
# Outline: as §1
# [5] = target: Man(a1-2)Man(a1-2)Man(a1-6)[Man(a1-3)]Man
# Outline: as §1
# Man(a1-2)Man(a1-3)Man = target: Man(a1-2)Man(a1-3)Man
# Outline: as §1
# [6] = target: Man(a1-2)Man(a1-3)[Man(a1-2)Man(a1-6)]Man
# Outline: as §1
# [7] = target: Man(a1-2)Man(a1-3)[Man(a1-2)Man(a1-6)]Man(a1-6)[Man(a1-2)Man(a1-2)Man(a1-3)]Man
# Outline: as §1
# [8] = target: Man(a1-2)Man(a1-3)[Man(a1-2)Man(a1-6)]Man(a1-6)[Man(a1-2)Man(a1-2)Man(a1-3)]Man(b1-4)GlcNAc(b1-4)GlcNAc
# Outline: as §1
# [9] = target: Man(a1-2)Man(a1-3)[Man(a1-6)]Man(a1-6)[Man(a1-2)Man(a1-3)]Man(b1-4)GlcNAc(b1-4)GlcNAc
# Outline: as §1
# [10] = target: Man(a1-2)Man(a1-6)[Man(a1-3)]Man(a1-6)[Man(a1-2)Man(a1-2)Man(a1-3)]Man
# Outline: as §1
# [11] = target: Man(a1-2)Man(a1-6)[Man(a1-3)]Man(a1-6)[Man(a1-2)Man(a1-2)Man(a1-3)]Man(b1-4)GlcNAc(b1-4)GlcNAc
# Outline: as §1
# Man(a1-3)[Man(a1-6)]Man = target: Man(a1-3)[Man(a1-6)]Man
# Outline: as §1
# [12] = target: Man(a1-3)[Man(a1-6)]Man(a1-6)[Man(a1-2)Man(a1-3)]Man(b1-4)GlcNAc(b1-4)GlcNAc
# Outline: as §1
# [13] = target: Man(a1-3)[Man(a1-6)]Man(a1-6)[Man(a1-3)]Man
# Outline: as §1
# [14] = target: Man(a1-3)[Man(a1-6)]Man(a1-6)[Man(a1-3)]Man(b1-4)GlcNAc(b1-4)GlcNAc
# Outline: as §1
# [15] = target: Man(a1-3)[Man(a1-6)]Man(b1-4)GlcNAc(b1-4)GlcNAc
# Outline: as §1
# Man(a1-6)Man = target: Man(a1-6)Man
# Outline: as §1
# Man(b1-4)GlcNAc = target: Man(b1-4)GlcNAc
# Outline: as §1
# Neu5Ac(a2-3)Gal = target: Neu5Ac(a2-3)Gal
# Outline: as §1
# [16] = target: Neu5Ac(a2-3)Gal(b1-3)GalNAc
# Outline: as §1
# [17] = target: Neu5Ac(a2-3)Gal(b1-3)GalNAc(b1-3)Gal(a1-4)Gal(b1-4)Glc
# Outline: as §1
# [18] = target: Neu5Ac(a2-3)Gal(b1-3)GalNAc(b1-4)[Neu5Ac(a2-3)]Gal(b1-4)Glc
# Outline: as §1
# [19] = target: Neu5Ac(a2-3)Gal(b1-3)GalNAc(b1-4)[Neu5Ac(a2-8)Neu5Ac(a2-3)]Gal(b1-4)Glc
# Outline: as §1
# [20] = target: Neu5Ac(a2-3)Gal(b1-3)GalNAc6S
# Outline: as §1
# [21] = target: Neu5Ac(a2-3)Gal(b1-3)GlcNAc
# Outline: as §1
# [22] = target: Neu5Ac(a2-3)Gal(b1-3)GlcNAc(b1-2)Man(a1-3)[Neu5Ac(a2-3)Gal(b1-3)GlcNAc(b1-2)Man(a1-6)]Man(b1-4)GlcNAc(b1-4)GlcNAc
# Outline: as §1
# [23] = target: Neu5Ac(a2-3)Gal(b1-3)GlcNAc(b1-3)Gal(b1-3)GlcNAc
# Outline: as §1
# [24] = target: Neu5Ac(a2-3)Gal(b1-3)GlcNAc(b1-3)Gal(b1-4)GlcNAc
# Outline: as §1
# [25] = target: Neu5Ac(a2-3)Gal(b1-3)GlcNAc(b1-3)GalNAc
# Outline: as §1
# [26] = target: Neu5Ac(a2-3)Gal(b1-3)GlcNAc6S
# Outline: as §1
# [27] = target: Neu5Ac(a2-3)Gal(b1-3)[Fuc(a1-4)]GlcNAc
# Outline: as §1
# [28] = target: Neu5Ac(a2-3)Gal(b1-3)[Fuc(a1-4)]GlcNAc(b1-3)Gal(b1-3)[Fuc(a1-4)]GlcNAc
# Outline: as §1
# [29] = target: Neu5Ac(a2-3)Gal(b1-3)[Fuc(a1-4)]GlcNAc(b1-3)Gal(b1-4)[Fuc(a1-3)]GlcNAc
# Outline: as §1
# [30] = target: Neu5Ac(a2-3)Gal(b1-3)[Neu5Ac(a2-3)Gal(b1-4)]GlcNAc
# Outline: as §1
# [31] = target: Neu5Ac(a2-3)Gal(b1-3)[Neu5Ac(a2-6)]GalNAc
# Outline: as §1
# Neu5Ac(a2-3)Gal(b1-4)Glc = target: Neu5Ac(a2-3)Gal(b1-4)Glc
# Outline: as §1
# [32] = target: Neu5Ac(a2-3)Gal(b1-4)GlcNAc
# Outline: as §1
# [33] = target: Neu5Ac(a2-3)Gal(b1-4)GlcNAc(b1-2)Man(a1-3)[GlcNAc(b1-2)Man(b1-4)GlcNAc(b1-2)Man(a1-6)]Man(b1-4)GlcNAc(b1-4)GlcNAc
# Outline: as §1
# [34] = target: Neu5Ac(a2-3)Gal(b1-4)GlcNAc(b1-2)Man(a1-3)[Neu5Ac(a2-6)Gal(b1-4)GlcNAc(b1-2)Man(a1-6)]Man(b1-4)GlcNAc(b1-4)GlcNAc
# Outline: as §1
# [35] = target: Neu5Ac(a2-3)Gal(b1-4)GlcNAc(b1-3)Gal
# Outline: as §1
# [36] = target: Neu5Ac(a2-3)Gal(b1-4)GlcNAc(b1-3)Gal(b1-3)GlcNAc
# Outline: as §1
# [37] = target: Neu5Ac(a2-3)Gal(b1-4)GlcNAc(b1-3)Gal(b1-4)GlcNAc
# Outline: as §1
# [38] = target: Neu5Ac(a2-3)Gal(b1-4)GlcNAc(b1-3)Gal(b1-4)GlcNAc(b1-3)Gal(b1-4)GlcNAc
# Outline: as §1
# [39] = target: Neu5Ac(a2-3)Gal(b1-4)GlcNAc(b1-3)Gal(b1-4)[Fuc(a1-3)]GlcNAc
# Outline: as §1
# [40] = target: Neu5Ac(a2-3)Gal(b1-4)GlcNAc(b1-3)GalNAc
# Outline: as §1
# [41] = target: Neu5Ac(a2-3)Gal(b1-4)GlcNAc(b1-6)[Gal(b1-3)]GalNAc
# Outline: as §1
# [42] = target: Neu5Ac(a2-3)Gal(b1-4)GlcNAc(b1-6)[Neu5Ac(a2-3)Gal(b1-3)]GalNAc
# Outline: as §1
# [43] = target: Neu5Ac(a2-3)Gal(b1-4)GlcNAc6S
# Outline: as §1
# [44] = target: Neu5Ac(a2-3)Gal(b1-4)[Fuc(a1-3)]GlcNAc
# Outline: as §1
# [45] = target: Neu5Ac(a2-3)Gal(b1-4)[Fuc(a1-3)]GlcNAc(b1-3)Gal
# Outline: as §1
binder,measurement,setting,value
Gal 7 (Canis lupus) (protein) MAGSSNVPHKTSLPEGIRVGTVMRIRGVVPNKAGRFYVNLLCGEAPGSEAALHFNPRLDESTVVFNTLEQGAWGREERGTGIPFQRGQPFDVLLIATDEGFKAVVGDSEYHHFRYRIPPARVRLLEVGGDLQLESVSVF,glycan array binding signal (z-score),[1],-0.21
same,glycan array binding signal (z-score),GlcNAc(b1-6)GalNAc,-0.213
same,glycan array binding signal (z-score),GlcNAc3Prop(b1-4)GlcNAc,-0.214
same,glycan array binding signal (z-score),[2],-0.212
same,glycan array binding signal (z-score),Kdn(a2-3)Gal(b1-3)GalNAc,-0.21
same,glycan array binding signal (z-score),Kdn(a2-3)Gal(b1-3)GlcNAc,-0.217
same,glycan array binding signal (z-score),Kdn(a2-3)Gal(b1-4)Glc,-0.206
same,glycan array binding signal (z-score),Kdn(a2-3)Gal(b1-4)GlcNAc,-0.203
same,glycan array binding signal (z-score),[3],-0.21
same,glycan array binding signal (z-score),Kdn(a2-6)Gal(b1-4)GlcNAc,-0.21
same,glycan array binding signal (z-score),[4],-0.217
same,glycan array binding signal (z-score),[5],-0.188
same,glycan array binding signal (z-score),Man(a1-2)Man(a1-3)Man,-0.215
same,glycan array binding signal (z-score),[6],-0.209
same,glycan array binding signal (z-score),[7],-0.214
same,glycan array binding signal (z-score),[8],-0.209
same,glycan array binding signal (z-score),[9],-0.208
same,glycan array binding signal (z-score),[10],-0.202
same,glycan array binding signal (z-score),[11],-0.219
same,glycan array binding signal (z-score),Man(a1-3)[Man(a1-6)]Man,-0.216
same,glycan array binding signal (z-score),[12],-0.212
same,glycan array binding signal (z-score),[13],-0.217
same,glycan array binding signal (z-score),[14],-0.193
same,glycan array binding signal (z-score),[15],-0.217
same,glycan array binding signal (z-score),Man(a1-6)Man,-0.209
same,glycan array binding signal (z-score),Man(b1-4)GlcNAc,-0.213
same,glycan array binding signal (z-score),Neu5Ac(a2-3)Gal,-0.216
same,glycan array binding signal (z-score),[16],-0.213
same,glycan array binding signal (z-score),[17],-0.189
same,glycan array binding signal (z-score),[18],-0.215
same,glycan array binding signal (z-score),[19],-0.185
same,glycan array binding signal (z-score),[20],-0.218
same,glycan array binding signal (z-score),[21],-0.211
same,glycan array binding signal (z-score),[22],-0.21
same,glycan array binding signal (z-score),[23],-0.068
same,glycan array binding signal (z-score),[24],-0.206
same,glycan array binding signal (z-score),[25],-0.22
same,glycan array binding signal (z-score),[26],-0.214
same,glycan array binding signal (z-score),[27],-0.203
same,glycan array binding signal (z-score),[28],-0.195
same,glycan array binding signal (z-score),[29],-0.214
same,glycan array binding signal (z-score),[30],-0.203
same,glycan array binding signal (z-score),[31],-0.195
same,glycan array binding signal (z-score),Neu5Ac(a2-3)Gal(b1-4)Glc,-0.204
same,glycan array binding signal (z-score),[32],-0.213
same,glycan array binding signal (z-score),[33],-0.195
same,glycan array binding signal (z-score),[34],-0.217
same,glycan array binding signal (z-score),[35],-0.173
same,glycan array binding signal (z-score),[36],-0.206
same,glycan array binding signal (z-score),[37],-0.219
same,glycan array binding signal (z-score),[38],0.112
same,glycan array binding signal (z-score),[39],-0.198
same,glycan array binding signal (z-score),[40],-0.203
same,glycan array binding signal (z-score),[41],-0.213
same,glycan array binding signal (z-score),[42],-0.213
same,glycan array binding signal (z-score),[43],-0.207
same,glycan array binding signal (z-score),[44],-0.212
same,glycan array binding signal (z-score),[45],-0.197
